The list shows a part of the results.

One test has as its system HepG2. The test is described as follows: cytotoxicity call (relative viability < 0.9). The following applies: 10 µM.
In the case of `Cc1cc2nc3c(=O)[nH]c(=O)nc-3n(CC(O)C(O)C(O)CO)c2cc1C` (configuration not stated), the cytotoxicity call is “inactive”.

In the case of `C=CCOC(=O)[C@@H]1[C@H]2C(=O)O[C@H](c3ccccc3)[C@H](c3ccccc3)N2[C@H](c2ccc(OCCOC(=O)[C@H]3C[C@H]4C(=O)NCC(=O)N4[C@H]3c3ccc(O)cc3)cc2)[C@@]12C(=O)Nc1ccc(I)cc12`, the cytotoxicity call was “inactive”.

On to `C[C@@H]1CN([C@@H](C)CO)S(=O)(=O)c2ccc(C3=CCCC3)cc2O[C@@H]1CN(C)C(=O)Cc1ccncc1`, for which the cytotoxicity call is “inactive”.

Turning to `C[C@H](CO)N1C[C@H](C)[C@@H](CN(C)CC2CCCCC2)OCCCC[C@H](C)Oc2ccc(NS(=O)(=O)c3ccc(Cl)cc3)cc2C1=O`, the cytotoxicity call was “inactive”.

Regarding `COc1ccc(S(=O)(=O)N(C)C[C@@H]2OCCCC[C@@H](C)Oc3ccc(NC(=O)Nc4cccc5ccccc45)cc3C(=O)N([C@@H](C)CO)C[C@H]2C)cc1`, the cytotoxicity call was “inactive”.

`C[C@H]1CCCCO[C@@H](CN(C)C(=O)c2ccccc2)[C@@H](C)CN([C@@H](C)CO)C(=O)c2cc(NC(=O)NC3CCCCC3)ccc2O1`: the cytotoxicity call was “inactive”.

On to `Cc1noc(C)c1NC(=O)Nc1ccc2c(c1)C(=O)N([C@H](C)CO)C[C@@H](C)[C@@H](CN(C)Cc1ccccc1)OCCCC[C@@H](C)O2`, for which the cytotoxicity call was “inactive”.

Take `Cc1noc(C)c1S(=O)(=O)Nc1ccc2c(c1)C(=O)N([C@@H](C)CO)C[C@@H](C)[C@H](CN(C)S(=O)(=O)c1ccc(F)cc1)O2`: the cytotoxicity call was “inactive”.

Turning to `C[C@@H]1CN([C@H](C)CO)C(=O)c2cc(C#CCc3ccccc3)cnc2O[C@H]1CN(C)CC1CCOCC1`, the cytotoxicity call is “inactive”.

For `C[C@@H]1CN([C@@H](C)CO)C(=O)c2cc(NC(=O)C3CCCCC3)ccc2O[C@@H](C)CCCCO[C@H]1CN(C)C(=O)c1ccncc1`, the cytotoxicity call is “inactive”.

On to `O=C(CN1CCOCC1)NCC[C@H]1CC[C@@H](NC(=O)Cc2ccccn2)[C@H](CO)O1`, for which the cytotoxicity call was “inactive”.

The test system of another test is S. aureus RN4220. Kind of test: growth inhibition call (relative growth <= 0.2). The following applies: 50 µM.
On to `C[C@H](CO)N1C[C@H](C)[C@H](CN(C)Cc2ccc(Oc3ccccc3)cc2)Oc2c(NC(=O)Nc3ccc4c(c3)OCO4)cccc2C1=O`, for which the growth inhibition call is “inactive”.

With `C[C@@H]1CCCCO[C@@H](CN(C)Cc2ccncc2)[C@H](C)CN([C@@H](C)CO)C(=O)c2cc(NC(=O)Nc3ccc(C(F)(F)F)cc3)ccc2O1`, the growth inhibition call was “inactive”.

`C[C@H](CO)N1C[C@H](C)[C@@H](CN(C)S(=O)(=O)c2cccs2)Oc2ccc(NC(=O)Cc3ccccc3)cc2CC1=O`: the growth inhibition call was “inactive”.

`C=C(C)C1CCC2(C)CCC3(C)C(CCC4C5(C)CCC(OC(C)=O)C(C)(C)C5CCC43C)C12` (configuration not stated): the growth inhibition call is “inactive”.

Turning to `C[C@H]1CCCCO[C@H](CN(C)S(=O)(=O)c2ccc(F)cc2)[C@@H](C)CN([C@@H](C)CO)C(=O)c2cc(NC(=O)Nc3ccc4c(c3)OCO4)ccc2O1`, the growth inhibition call is “inactive”.

On to `C[C@@H]1CN([C@@H](C)CO)C(=O)c2cc(NC(=O)Nc3cccc4ccccc34)ccc2O[C@@H](C)CCCCO[C@H]1CN(C)C(=O)C1CCCCC1`, for which the growth inhibition call is “inactive”.

In the case of `C[C@@H]1CCCCO[C@@H](CN(C)Cc2ccccc2)[C@@H](C)CN([C@@H](C)CO)C(=O)c2cc(NS(=O)(=O)c3ccccc3)ccc2O1`, the growth inhibition call is “inactive”.

For the compound `C[C@H](CO)N1C[C@H](C)[C@@H](CN(C)Cc2ccc(-c3ccccc3)cc2)Oc2ccc(NC(=O)NC3CCCCC3)cc2CC1=O`, the growth inhibition call is “inactive”.

As to `Cc1ccc(S(=O)(=O)N(C)C[C@@H]2Oc3ncc(C#CC4(O)CCCC4)cc3C(=O)N([C@@H](C)CO)C[C@H]2C)cc1`, the growth inhibition call is “inactive”.

In the case of `CCN(CC)CCc1nc(-c2ccccc2)no1.O=C(O)CC(O)(CC(=O)O)C(=O)O`, the growth inhibition call was “inactive”.

Consider `COC1C(O)CC(=O)OC(C)CC=CC=CC(OC2CCC(N(C)C)C(C)O2)C(C)CC(CC=O)C1OC1OC(C)C(OC2CC(C)(O)C(O)C(C)O2)C(N(C)C)C1O` (configuration not stated), for which the growth inhibition call was “active”.

As to `Cc1cc(-c2ccc(NN=C3C=Cc4c(S(=O)(=O)O)cc(S(=O)(=O)O)c(N)c4C3=O)c(C)c2)ccc1NN=C1C=Cc2c(S(=O)(=O)O)cc(S(=O)(=O)O)c(N)c2C1=O`, the growth inhibition call was “inactive”.

As for `CCn1nnnc1NCc1cccn1C`, the growth inhibition call was “inactive”.

Take `C[C@H](CO)N1C[C@H](C)[C@@H](CN(C)Cc2ccc(-c3ccccc3)cc2)Oc2ccc(NC(=O)C3CCCCC3)cc2C1=O`: the growth inhibition call was “inactive”.

Turning to `C[C@@H]1CN([C@@H](C)CO)C(=O)c2cc(NC(=O)CCCCCC(=O)Nc3ccccc3N)ccc2O[C@@H]1CN(C)S(=O)(=O)c1cn(C)cn1`, the growth inhibition call is “inactive”.

Take `C[C@@H]1CN([C@@H](C)CO)C(=O)c2cccc(NC(=O)Nc3ccc(C(F)(F)F)cc3)c2O[C@@H]1CN(C)Cc1ccc(Oc2ccccc2)cc1`: the growth inhibition call was “inactive”.

These data come from the antibiotic and cytotoxicity screens of Wong et al. (2023).
